Out of some 150,000 compounds screened, about 540 (0.36%) showed an effect of 50% or more. Some of the results follow.
What follows are compounds tested on Plasmodium falciparum (assay: Primary screen in NF54 nanoGlo assay, in single point, at 2uM, 72h; a lower Z score goes with more inhibition). Conditions: timepoint 72 hour.
Format: functional, Erythrocyte
For `CC(C)Oc1cc(N(C)Cc2nncn2C(C)C)nc(N)n1`, the “% Inhibition” value was -12% and the Z score was 1.34.
In the case of `CC(C)(C)OC(=O)NCc1cnn(Cc2ccccc2C#N)c1`, the “% Inhibition” value is reported as 5% and the Z score is reported as -0.63.
For `O=C(Nc1ccc(Oc2ccccc2)cc1)/C(=C/c1ccco1)c1ccccc1`, the “% Inhibition” value was -5% and the Z score was 0.68.
In the case of `Cn1cc(CCCNc2cc([C@H]3C[C@@H](N)C3)nc(N3CCCC3)n2)cn1`, the “% Inhibition” value is reported as -1% and the Z score is reported as 0.07.
For `O=C(NC[C@H]1COc2ccccc21)c1c(F)cccc1F`, the “% Inhibition” value was 11% and the Z score was -1.39.
With `C[C@@H](CN1CCOCC1)NC(=O)c1nccnc1N` the “% Inhibition” value was -6% and the Z score was 1.1.
For `COc1ccc(S(=O)(=O)N2CCC3(CC2)C[C@@H]3NC(=O)c2ccncc2)cc1`, the “% Inhibition” value was -4% and the Z score was 0.58.
`C[C@H](NCCn1ccnc1)c1cccc(F)c1F` was tested, and the “% Inhibition” value was -9% and the Z score was 1.67.
`Cc1cnc(Cn2cnc(-c3ccccc3)c2-c2ccccc2C(=O)O)cn1` was tested, and the “% Inhibition” value was -14% and the Z score was 1.3.
`CCc1ncc([C@H]2N(C)C(=O)c3ccccc3N2CC(=O)NC)s1` was tested, and the “% Inhibition” value was -7% and the Z score was 0.93.
In the case of `COc1ccc(N2CCN(C(=O)C[C@]3(c4ccccc4F)CC(=O)N(C4CCCC4)C3=O)CC2)cc1`, the “% Inhibition” value is reported as 13% and the Z score is reported as -2.41.
In the case of `Cc1ccc(-n2ncc3c(O)c(-c4nc(-c5ccc(Cl)cc5)no4)c(=O)[nH]c32)cc1`, the “% Inhibition” value is reported as -15% and the Z score is reported as 2.38.
For `CCN=C(NCC)NCc1ccc(Cl)cc1`, the “% Inhibition” value was -15% and the Z score was 2.13.
In the case of `COc1ccc(-c2ccnc(-n3ncc(C(=O)NC4CCCC4)c3C)n2)cc1F`, the “% Inhibition” value is reported as -7% and the Z score is reported as 0.96.
With `CC(C)(C)OC(=O)N1CCC(CC(=O)Nc2cnccc2O)CC1` the “% Inhibition” value was -19% and the Z score was 1.86.
In the case of `O=C(NCCN1c2ccccc2N(C2CC2)S1(=O)=O)c1ccoc1`, the “% Inhibition” value is reported as -12% and the Z score is reported as 1.9.
In the case of `C[C@@H](C1CC1)N(C)S(=O)(=O)NCc1nnc2ccccn12`, the “% Inhibition” value is reported as -11% and the Z score is reported as 0.95.
For `CCn1nc(CC(C)C)cc1C(=O)N1CCC(Cc2nc(C)no2)CC1`, the “% Inhibition” value was -14% and the Z score was 2.21.
For `Cn1nc(-c2ccccc2)c(CN(CC2CC2)C[C@H](O)CN2CCOCC2)c1Oc1ccccc1F`, the “% Inhibition” value was 2% and the Z score was -0.25.
`CC1CCC(OC2CCN(S(C)(=O)=O)CC2)CC1` (stereo unspecified) was tested, and the “% Inhibition” value was -4% and the Z score was 0.7.
For `CC1CC(C(=O)N2CCCCCCC2)C1` (stereo unspecified), the “% Inhibition” value was 4% and the Z score was -0.43.
`O=C(NCC1CC1)c1cnc(-c2ccc(F)cc2)nc1N1CCC(Cc2ccccc2)CC1` was tested, and the “% Inhibition” value was -5% and the Z score was 0.81.
For `COC[C@H]1CN(c2ccc3nccnc3n2)CCO1`, the “% Inhibition” value was -25% and the Z score was 2.9.
For `CCOC(=O)C1CCN(C(=O)C(Cl)(Cl)Cl)CC1`, the “% Inhibition” value was -4% and the Z score was 0.78.
With `COc1cncc(C(NC(=O)Cc2ccc(Cl)cc2)[C@H]2C[C@@H](O)C2)c1` (stereo partly specified) the “% Inhibition” value was 2% and the Z score was -0.16.
In the case of `CC(C)c1cc(N(C)CCN(C)C2CCCC2)ncn1`, the “% Inhibition” value is reported as -5% and the Z score is reported as 0.72.
In the case of `CCOC(=O)N1CCC(NC(=O)c2oc(C)nc2C)CC1`, the “% Inhibition” value is reported as -5% and the Z score is reported as 0.92.
For `O=C(Cn1c(-c2ccccc2)cc2ccccc21)N1CCC(C(=O)N2CCCCCC2)CC1`, the “% Inhibition” value was 17% and the Z score was -1.94.
With `N#C[C@@H](NC(=O)CCc1cscn1)c1ccc(F)cc1F` the “% Inhibition” value was -6% and the Z score was 0.79.
In the case of `O=C(c1ccccc1C(F)(F)F)N1CCN(c2nccs2)C(=O)C1`, the “% Inhibition” value is reported as 8% and the Z score is reported as -1.07.
In the case of `c1ccc(CN2C[C@H]3CC[C@@H](C2)N(Cc2cnc(N4CCCC4)s2)C3)cc1`, the “% Inhibition” value is reported as 2% and the Z score is reported as -0.26.
In the case of `O=C(Nc1cccc(F)c1)N1C[C@@H]2C[C@H](C1)c1c(-c3ccc4ccccc4c3)ccc(=O)n1C2`, the “% Inhibition” value is reported as 0% and the Z score is reported as -0.07.
With `COC(=O)c1c(NC(=O)[C@H]2CCCN(S(=O)(=O)c3cnn(C)c3C)C2)cnn1C` the “% Inhibition” value was 38% and the Z score was -5.44.
In the case of `COCCn1c(N)c(N(Cc2ccccc2)C(=O)Cn2c(C)cc3ccccc32)c(=O)[nH]c1=O`, the “% Inhibition” value is reported as -11% and the Z score is reported as 1.8.
In the case of `Cc1[nH]c([C@H]2CC(=O)N(CC(C)C)C2)nc1-c1ccc(Cl)cc1`, the “% Inhibition” value is reported as -14% and the Z score is reported as 1.73.
With `Cc1ccc(CCC(=O)N2CC3CN(C)C(c4ccccc4)C3C2)o1` (stereo unspecified) the “% Inhibition” value was 10% and the Z score was -1.12.
In the case of `Cc1c(C(=O)N(C)Cc2ccc(C3CC3C)o2)cnn1C` (stereo unspecified), the “% Inhibition” value is reported as -2% and the Z score is reported as 0.24.
For `CC(=Cc1ccc(C)cc1)C(=O)N1CC(c2n[nH]c3c2COCC3)C1`, the “% Inhibition” value was -2% and the Z score was 0.19.
For `Cn1nc(C(F)(F)F)cc1CS(=O)(=O)c1ccc2c(c1)CCC2`, the “% Inhibition” value was -11% and the Z score was 1.91.
`COCc1nc(C(=O)NCc2c(C)cc(C)[nH]c2=O)cs1` was tested, and the “% Inhibition” value was -12% and the Z score was 1.04.
With `COCc1nn2c(c1-c1ccccc1)NC(=O)[C@@H]2CC(=O)Nc1cc(Cl)ccc1OC` the “% Inhibition” value was 13% and the Z score was -1.92.
For `Cc1nnsc1CN(C)C(=O)c1ccc(Cl)cc1`, the “% Inhibition” value was -11% and the Z score was 1.54.
With `COc1ccc(NC(=O)C(F)(F)F)cc1OC` the “% Inhibition” value was -9% and the Z score was 1.24.
With `CC(O)C1CN(C(=O)C2CCCN2c2ccccc2)CCO1` (stereo unspecified) the “% Inhibition” value was -5% and the Z score was 0.96.
`CN(C)C[C@H]1CN(CC(=O)N(C)Cc2ccsc2)CCO1` was tested, and the “% Inhibition” value was -7% and the Z score was 0.94.
With `O=C(OCCOc1ccccc1)c1ccc2nccnc2c1` the “% Inhibition” value was -2% and the Z score was 0.26.
In the case of `O=C(O)C(c1ccccc1Br)N1CCCC(n2ccnn2)C1` (stereo unspecified), the “% Inhibition” value is reported as -6% and the Z score is reported as 0.96.
With `Fc1ccc(-c2ccc(N3CCCC3)nn2)cc1Cl` the “% Inhibition” value was -11% and the Z score was 2.16.
With `Cc1ccc(-n2ccc(=O)c(C(=O)Nc3ccc(S(=O)(=O)Nc4nc(C)cc(C)n4)cc3)n2)cc1` the “% Inhibition” value was 1% and the Z score was -0.13.
In the case of `Cc1noc(CCN[C@@H](C)c2ccc(S(C)(=O)=O)c(F)c2)n1`, the “% Inhibition” value is reported as 1% and the Z score is reported as -0.17.
`O=C(Nc1nc2n(n1)CCCC2)N1CC(c2ccccc2)C2COCCC21` (stereo unspecified) was tested, and the “% Inhibition” value was 4% and the Z score was -0.32.
With `COC(=O)c1ccccc1NC(=O)c1ccc(-n2nnc3cccnc32)cc1Cl` the “% Inhibition” value was -6% and the Z score was 0.73.
For `Cc1cnn(-c2cnc3ccccc3c2)c1`, the “% Inhibition” value was -17% and the Z score was 1.67.
